Assay results from publication PMC4336329 (PLoS ONE, 2015).
The whole screen tested about 310,000 compounds, of which about 14,000 (4.5%) showed an effect of 50% or more. Effects have a minus sign here. The list shows a part of the results.

target: human ether-à-go-go-related gene (hERG) potassium channel (human, UniProt Q12809); test: primary screen, population patch clamp on CHO cells stably expressing hERG
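Also: peak tail current of the secondary pulse compared with the same well before compound.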

Chain of human ether-à-go-go-related gene (hERG) potassium channel (Q12809 whole entry, looked up): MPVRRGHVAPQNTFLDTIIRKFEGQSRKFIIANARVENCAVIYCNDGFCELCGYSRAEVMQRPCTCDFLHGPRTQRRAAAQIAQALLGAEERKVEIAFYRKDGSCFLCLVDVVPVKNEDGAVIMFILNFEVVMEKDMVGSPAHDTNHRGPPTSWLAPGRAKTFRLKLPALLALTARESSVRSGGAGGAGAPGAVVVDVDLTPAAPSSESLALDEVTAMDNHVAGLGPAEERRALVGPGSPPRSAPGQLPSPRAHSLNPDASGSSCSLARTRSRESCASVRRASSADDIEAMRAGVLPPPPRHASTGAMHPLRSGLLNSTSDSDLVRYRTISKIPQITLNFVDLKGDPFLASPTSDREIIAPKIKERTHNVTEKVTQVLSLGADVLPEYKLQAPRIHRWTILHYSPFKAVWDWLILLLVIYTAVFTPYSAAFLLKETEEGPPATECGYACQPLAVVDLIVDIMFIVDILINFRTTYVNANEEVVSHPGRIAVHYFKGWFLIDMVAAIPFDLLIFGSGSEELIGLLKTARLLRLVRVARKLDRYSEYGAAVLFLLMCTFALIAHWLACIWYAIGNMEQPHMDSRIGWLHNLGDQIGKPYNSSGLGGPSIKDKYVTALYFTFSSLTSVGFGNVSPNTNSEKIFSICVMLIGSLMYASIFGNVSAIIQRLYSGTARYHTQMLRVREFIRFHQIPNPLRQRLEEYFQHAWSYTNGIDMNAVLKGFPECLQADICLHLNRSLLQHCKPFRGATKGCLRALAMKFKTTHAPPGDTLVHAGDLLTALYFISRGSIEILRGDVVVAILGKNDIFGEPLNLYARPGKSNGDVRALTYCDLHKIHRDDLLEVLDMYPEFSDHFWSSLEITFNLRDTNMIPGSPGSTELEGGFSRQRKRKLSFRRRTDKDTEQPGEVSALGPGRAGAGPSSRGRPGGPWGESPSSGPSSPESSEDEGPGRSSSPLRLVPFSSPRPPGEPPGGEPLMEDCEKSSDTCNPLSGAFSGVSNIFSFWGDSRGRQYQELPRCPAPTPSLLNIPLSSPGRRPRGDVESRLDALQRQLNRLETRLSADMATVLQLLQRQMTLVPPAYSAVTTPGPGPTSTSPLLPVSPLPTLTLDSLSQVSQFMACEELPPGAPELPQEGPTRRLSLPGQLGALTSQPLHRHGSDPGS

SMILES | hERG current change (%, negative = inhibition) at 10uM [%]
CC(C)(C)C(=O)NCCCNc1ccc([N+](=O)[O-])cc1 | -24.7
CSCCC(NC(=O)/C(=C/c1ccc2c(c1)OCO2)NC(=O)c1cccc([N+](=O)[O-])c1)C(=O)O (centres unmarked) | 1.16
CCOCCOC(=O)c1cccc2c1-c1ccccc1C2=O | -2.53
Cn1c(O)c(C=Nc2ccccc2Sc2ccccc2)c(=O)n(C)c1=O | 16.4
CCOC(=O)C(C)n1cnc2c(nnn2-c2ccc(OC)cc2)c1=O (centres unmarked) | -13.2
O=C(Cc1c(C(=O)O)[nH]c2ccc(Cl)cc12)Nc1ccc2c(c1)OCCO2 | 1.71
CC(=O)Nc1ccc(N(C(=O)Cn2nnc3ccccc32)C(C(=O)NC2CCCC2)c2ccc(O)c(O)c2)cc1 (centres unmarked) | 21.1
COC(=O)CSc1nc2c(c(-c3ccc(O)cc3)c1C#N)CCCC2 | 16.3
Cc1ccccc1NC(=O)CSc1nnc(NC(=O)c2ccco2)s1 | 1.36
Cc1c(C(=O)OC/C(O)=C(\C#N)c2nc3ccccc3[nH]2)oc2ccc(Br)cc12 | 10.1
Clc1ccc(OCCCNCc2ccccc2)c2ccccc12.O=C(O)C(=O)O | -1.92
COc1ccc(C(=O)N2CCN(Cc3ccccn3)CC2)cc1.O=C(O)C(=O)O | -5.82
N#Cc1ccc(OCC(=O)NCCc2ccc(S(N)(=O)=O)cc2)cc1 | -2.1
CC1(C(=O)N(CC(=O)NC2CCCC2)Cc2ccco2)CC(=O)N=C2C=CC=CN21 (centres unmarked) | 5.74
COc1ccc(NS(=O)(=O)c2ccc(NC(=S)NC(=O)c3cccc(F)c3)cc2)nn1 | 15.9
Cc1ccccc1-n1c(SC(C)C(N)=O)nnc1-c1cccnc1 (centres unmarked) | -6.92
Cc1ccc(N(C)C(=O)CCS(=O)(=O)c2cc3c(cc2Cl)NC(=O)CO3)cc1 | -20.3
O=C(CCN1CCN(S(=O)(=O)c2ccc(F)cc2)CC1)Nc1ccccc1F | -8.34
O=Cc1cn(Cc2ccccc2)nc1-c1cccnc1 | 7.48
Cc1ccc(N/C(N)=N/c2nc(C)cc(N3CCCCC3)n2)c(C)c1 | -83
CCN1CCN(c2ncnc3c2nnn3Cc2ccccc2)CC1 | -19.3
CCOc1cc(CNCc2ccccc2)ccc1OCC(=O)NC1CCCCC1 | -25.6

SMILES | hERG current change (%, negative = inhibition) at 10uM [%]
CC(C)(C)OC(=O)NC1CNNC1=O (centres unmarked) | 12.9
CC(=O)c1sc2nc(-c3ccccc3)cc(C)c2c1N | 19.8
COc1ccc(Oc2nc(C)nc3c2oc2ccccc23)cc1 | 13.8
Cc1cc(C(=O)Nc2cc(Br)ccc2O)on1 | 24
Cc1nnc(SCC(=O)Nc2ccc(S(=O)(=O)Nc3ccc(Cl)nn3)cc2)s1 | 15.6
CN(C)S(=O)(=O)c1ccc(NC(=O)CN2C(=O)NC(Cc3ccccc3)C2=O)cc1 (centres unmarked) | 10.2
CCN(c1ccccc1)S(=O)(=O)c1ccc(C(=O)Nc2ccc(C)cn2)cc1 | -15.4
CCCN(CCC)C(=O)c1cn(CC)c2ccc(S(=O)(=O)N3CCCCC3)cc2c1=O | -10.5
Cc1ccc(C2=NN(CC(=O)NCCC(C)C)C(=O)CC2)cc1 | 4.58
COc1ccc(S(=O)(=O)C(C#N)c2nc3ccccc3nc2N2CCC(C)CC2)cc1 (centres unmarked) | 18.6
COc1cccc(CN2CCNC(=O)C2CC(=O)NCCc2nc(C)c(C)s2)c1OC (centres unmarked) | 17.9
CN(C)c1ccc(/C=N/Nc2ccc(-n3ccnc3)nn2)cc1 | -1.01
c1ccc(C2COC(c3cccs3)=N2)cc1 (centres unmarked) | -1.21
Cc1ccc(NC(=O)c2ccc(CSc3nnc(C)s3)cc2)c(C)c1 | 8.94
COc1cc(/C=C/CN2CCC(CO)(CC3CCCCO3)CC2)ccc1O (centres unmarked) | -19.1
Cc1ccc(C(=O)Nc2ccc(C(=O)O)cc2)cc1S(=O)(=O)Nc1cccc([N+](=O)[O-])c1 | 14.4
O=C(Nc1ccccc1C(=O)Nc1ccccc1C(=O)O)c1ccccc1 | 20.5
CCCSc1nc2[nH]ncc2c(=O)[nH]1 | 2.49
Cl.N[C@@H](Cc1c[nH]c2ccccc12)c1nnc(SCc2ccc(Cl)cc2)o1 | -20.8
C=C(Br)Cn1c(CC)nc2ccccc21 | 14.1
COC(=O)NC(=S)Nc1ccc(Oc2ccc(Cl)cc2Cl)c(Cl)c1 | 22.6
NC(=O)c1c(NC(=O)Cn2nc(C(=O)O)c3ccccc3c2=O)sc2c1CCC2 | 22.7

SMILES | hERG current change (%, negative = inhibition) at 10uM [%]
Cc1ccc(NC(=S)Nc2cc(C)on2)cc1 | 6.71
Cc1ccc(C(=O)NN(CCC(=O)NC(C)(C)C)C2=NS(=O)(=O)c3ccccc32)cc1 | -4.88
Cc1cc(C)cc(NC(=O)COC(=O)CCCNC(=O)c2ccc(Cl)cc2)c1 | -40.7
O=C(/C=C/c1c(Cl)nc2ccccn12)Nc1ccc(F)cc1 | 15.3
Cc1ccccc1C(=O)Nc1ccccc1C(=O)NCC(C)C | -5.58
CCOC(=O)c1cnc(-c2ccccc2)nc1Oc1cccc(Cl)c1 | 11.6
CC(=O)c1c(N2CCN(C)CC2)nc(=S)n(Cc2ccccc2)c1C | -3.14
COc1cc2c(cc1OC)n(CC(=O)NC1CCCCCC1)n1c(C)cc(=O)nc21 | -1.25
COc1cccc(/C=N/NC(=O)CSc2cccc3cccnc23)c1 | -12.6
Cc1nn(-c2ccccc2)c(N)c1C(O)(CSc1nccn1C)C(F)(F)F (centres unmarked) | 12.8
CCCCc1ccc(NC(=O)N2CCNC(=O)C2CC(=O)Nc2ccsc2C(=O)OC)cc1 (centres unmarked) | 8.51
O=S(=O)(Cc1ccccc1Cl)CC(O)COc1ccccc1Cl (centres unmarked) | -12.6
CC1(CCC(=O)N2CCCC(N3CCN(c4cccc(C(F)(F)F)c4)CC3)C2)CC1 (centres unmarked) | -61.5
COc1ccccc1OCCCOc1ccc(C)cc1Br | 7.23
COc1ccc(N2CCN(C(=O)C3CCC(Cn4c(=S)[nH]c5ccccc5c4=O)CC3)CC2)cc1 (centres unmarked) | -9.65
O=C1CC2(CCN(C(=O)c3cccc(Cl)c3)CC2)Oc2ccccc21 | -78.5
CS(=O)(=O)n1nc(-c2cccnc2)nc1NCc1ccccc1 | 43.9
N#CCc1nn2c3c(cnc2c1C#N)C(=O)CCC3 | -3.06
CC1(C)CCCN(C(=O)c2ccc3c(c2NCCO)C(=O)c2ccccc2C3=O)C1 | -19.9
CCNC(=S)N1CCN(CCN=CC2=C(O)CC(c3cccs3)CC2=O)CC1 (centres unmarked) | -40.6
COc1ccc(NC(=O)C2CCN(C(=O)[C@@H]3Cc4ccccc4CN3)CC2)cc1 | -38.2
CC(=O)N/C(=C\c1ccccc1)C(=O)OCC(=O)N(C)C1CCCCC1 | 6.43

SMILES | hERG current change (%, negative = inhibition) at 10uM [%]
Cc1ccc(NS(=O)(=O)c2csc(C(N)=O)c2)cc1C | 15
O=C(CSc1nc(-c2ccccc2)nc2ccc(F)cc12)Nc1ccc(C(=O)O)cc1 | 19
CCOC(=O)C1(Cc2ccc(OC)cc2)CCN(C(=O)c2cncs2)CC1 | -17.6
CC(C)CCN(C(=O)CNC(=O)c1ccco1)C(C(=O)NC1CCCCC1)c1cccnc1 (centres unmarked) | -2.26
COc1cc(NC(=O)CN2C(=O)c3ccccc3Sc3ccc(C(=O)N4CCOCC4)cc32)cc(OC)c1OC | -18.3
Nc1c(C(=O)Nc2ccccc2)sc2ncc([N+](=O)[O-])cc12 | 16.8
COC(=O)C(C)(C)ONC(=O)Nc1ccccc1Br | 6.43
C=CCOc1ccc(Br)cc1CNCCCN1CCOCC1.Cl | -27.7
Cc1c(C(=O)NC(=S)Nc2cccnc2)cccc1[N+](=O)[O-] | 22.7
S=C(NCc1ccccc1)Nc1cccc2cnccc12 | -24.5
Cc1ccc(Nc2cccccc2=O)cc1 | -4.5
Cc1nc2c(C(=O)N3CCC4(CC3)OCCO4)cnn2c(C)c1Cc1cccc(Cl)c1 | -46.8
Cc1cccc(NC(=O)/C(=C\c2ccc([N+](=O)[O-])o2)NC(=O)c2ccc(Cl)cc2)c1 | -0.872
Cc1cc(C)nc(-n2nc(C)cc2NC(=O)c2cc3ccccc3oc2=O)n1 | -22.1
O=[N+]([O-])c1ccc(COc2ccc(-c3[nH]ncc3-c3ccccc3)c(O)c2)cc1 | -4.33
COc1ccc(Cc2cnc(N)s2)cc1 | 22.7
CO/N=C(/CNC(=O)c1ccccc1Cl)c1ccc(Cl)cc1 | -11.3
CCc1ccc(Nc2n[n+](-c3ccccc3)c(-c3ccc(SC)cc3)s2)cc1.[Cl-] | -2.72
Cc1c(C)c2ccc(OCC(=O)N3C[C@H]4C[C@@H](C3)c3cccc(=O)n3C4)c(C)c2oc1=O | 1.39
O=C(COC(=O)CCc1ccccc1)Nc1cc([N+](=O)[O-])ccc1F | -0.991
